Reference: PubChem BioAssay AID463173 (ICCB-Longwood Screening Facility, Harvard Medical School, 2010)
Out of some 52,000 compounds screened, about 4,300 (8.3%) were called active. Cut-off read from the data, not from the text of the source: active = survival mostly below about 52% (no sharp cut-off); inactive = mostly above about 56%. The list shows a part of the results.

test system: DeltatarO mutant; experiment: growth inhibition of S. aureus wild type versus tarO mutant, primary screen, teichoic acid synthesis inhibitors, RN4220, OD600 (AID 463173); details: OD600, 18 h, active compounds read low, screened at 18.75 µg/mL (by protocol)

SMILES | survival
COc1ccc(Cn2c(C(=O)O)c(CNCCc3cccs3)c3ccc(OC)cc32)cc1 | inactive: 64%
COc1cccc(CNCCCSc2nnnn2C)c1 | inactive: 101%
Cc1oc2ncn(C)c(=O)c2c1C(=O)N1CCN(c2ccc(Cl)cc2)CC1 | inactive: 61%
Cc1ccccc1CN1C(=O)c2ccccc2S(=O)c2ccc(C(=O)NCc3ccccc3)cc21 (stereo not drawn) | inactive: 85%
COc1ccc(CCNC(=O)CCc2c(C)nc3c(-c4ccc(F)cc4)c(C)nn3c2C)cc1OC | inactive: 127%
CC1=C(C(=O)OC2CCCCCC2)C(c2ccccc2Cl)CC(=O)N1 (stereo not drawn) | inactive: 72%
COCCCNC(=O)N1CCN(c2nnc(C)c3c(C)n(-c4ccc(Cl)cc4)nc23)CC1 | inactive: 96%
Cc1ccc(-n2c(SCc3nc(-c4ccc(Cl)cc4)no3)nnc2-c2ccncc2)cc1 | active: 37%
CCc1ccc(NS(=O)(=O)c2ccc3[nH]cc(C(=O)N4CCCCCC4)c(=O)c3c2)cc1 | inactive: 73%
O=C1CN(C(=O)c2ccc(S(=O)(=O)N3CCCC3)cc2)C(c2ccc(F)cc2)c2cc(F)ccc2N1 (stereo not drawn) | inactive: 62%
CCc1cccc(NC(=O)c2sc3nc[nH]c(=O)c3c2C)c1 | inactive: 83%
CCOC(=O)Cc1ccc(NC(=O)N2CCC(CN3CCC(C)CC3)CC2)cc1 | inactive: 81%
COc1ccc(N(C(=O)c2ccc(C)cc2)S(=O)(=O)c2ccc(Cl)cc2)cc1 | inactive: 76%
CCN(c1ccccc1)S(=O)(=O)c1nnc(NC(=O)C(C)Oc2ccccc2)s1 (stereo not drawn) | inactive: 43%
COc1cc(C2C(C(=O)Nc3ccc(C)cc3C)=C(C)Nc3nc(SCc4ccccc4)nn32)cc(OC)c1OC (stereo not drawn) | inactive: 64%
O=C1c2oc3ccccc3c(=O)c2C(c2cccc(O)c2)N1Cc1ccc(F)cc1 (stereo not drawn) | inactive: 77%
CCOc1ccc(N(CC(=O)Nc2ccc3c(c2)OCO3)S(=O)(=O)c2ccccc2)cc1 | inactive: 87%
Cc1ccccc1Nc1c(-c2ccccc2O)nc2sccn12 | inactive: 69%
Cc1nn(C)c2c1c(-c1ccccc1)cc(=O)n2Cc1c(F)cccc1Cl | active: -5%
O=C(c1cc(-c2ccc(Cl)cc2)on1)N(Cc1ccc(F)cc1)Cc1ccco1 | inactive: 78%
CCOc1ccc(C(=O)Nc2cc(-c3ccccc3)no2)cc1 | inactive: 90%
COc1ccc(N(Cc2cccs2)C(=O)COc2ccc([N+](=O)[O-])cc2)cc1 | inactive: 58%

SMILES | survival
CCN(Cc1ccccc1)C(=O)c1cc2ccc3cccnc3c2[nH]1 | inactive: 49%
CCOc1ccccc1NC(=O)c1cc2ccc3cccnc3c2[nH]1 | active: 37%
Cc1ccc2oc3c(c(=O)c2c1)C(c1cccc(O)c1)N(CCCN1CCOCC1)C3=O (stereo not drawn) | inactive: 80%
Cc1ccc(CNC(=O)c2cnn3c(C)c(Cc4c(F)cccc4Cl)c(C)nc23)cc1 | inactive: 70%
Cc1cccc(-c2nnc(SCC(=O)NC3CCCCC3)o2)c1 | inactive: 82%
COCCNC(=O)CCn1c(=O)c2cc(OC)c(OC)cc2n(CC(=O)Nc2ccccc2OC)c1=O | inactive: 97%
COc1ccccc1NC(=O)c1c(C)cc(C)nc1SCC(=O)Nc1cccc(C)c1 | inactive: 52%
CCc1cccc(CC)c1N(COC)C(=O)Cn1c(C)nc2ccccc21 | inactive: 59%
CCN(CC)CCOC(=O)c1ccc(NC(=O)CSc2cc(=O)n(CC)c3ccccc23)cc1 | inactive: 131%
CCc1nn(CC(=O)Nc2ccc(C)cc2C)c(=O)c2cc3sccc3n12 | inactive: 83%
O=C(Nc1ccc(F)c(Cl)c1)C1Cc2ccccc2CN1S(=O)(=O)c1ccc(F)cc1 (stereo not drawn) | inactive: 58%
COc1cccc(NC(=O)CSc2nc3c([nH]c4ccccc43)c(=O)n2-c2cccc(Cl)c2)c1 | inactive: 87%
Cc1ccc(Cn2ccn(Cc3cccc(C(F)(F)F)c3)c(=O)c2=O)cc1 | inactive: 111%
CN(c1ccccc1)N1C(=O)c2cccc3cccc(c23)C1=O | inactive: 75%
O=C(CCC(=O)N1CCc2ccccc21)N1CCc2ccccc21 | inactive: 84%
Cc1ccc(-c2ccc(=O)n(CC(=O)Nc3ccc(C(C)C)cc3)n2)cc1 | inactive: 55%
CCOC(=O)c1ccc(NC(=O)CSc2nc(C)c(Cc3ccccc3)c(=O)[nH]2)cc1 | active: 45%
N#C/C(=C\C1CC=CCC1)c1nc2ccccc2c(=O)[nH]1 (stereo not drawn) | inactive: 76%
C=CCOc1ccc(C2c3c(oc4ccc(C)cc4c3=O)C(=O)N2CCCN2CCOCC2)cc1 (stereo not drawn) | inactive: 73%
Cc1ccc(C2=NN(CC(=O)NC(C)c3ccccc3)C(=O)CC2)cc1 (stereo not drawn) | inactive: 71%
CCOC(=O)c1c(NC(=O)COc2cccc(C)c2C)sc2c1CCCCC2 | inactive: 64%
CC(C)c1ccc(Nc2c(-c3ccc(N4CCOCC4)cc3)nc3ncccn23)cc1 | inactive: 83%

SMILES | survival
COc1ccc(NC(=O)C2CCC(CNS(=O)(=O)c3csc(C(N)=O)c3)CC2)cc1 (stereo not drawn) | inactive: 82%
COc1ccc(Nc2ncnc3onc(-c4ccc(Cl)cc4)c23)cc1Cl | inactive: 132%
Cc1ccc(NC(=O)c2cn(-c3ccccc3)nc2-c2ccccc2)cc1 | inactive: 98%
CCCCn1c(SCC(=O)Nc2cccc(OC)c2)nc2ccsc2c1=O | inactive: 134%
COc1cc(OC)c(NC(=O)c2cnn(-c3cccc(Cl)c3C)c2C2CCN(C(=O)OC(C)(C)C)CC2)cc1Cl | inactive: 66%
COc1ccc(-n2cc(-c3ccccc3)c3c(NCc4cccc(Cl)c4)ncnc32)cc1 | inactive: 79%
O=C(NCc1ccccc1)c1ccc(NC(=O)N2CCSc3ncccc32)cc1 | inactive: 91%
O=S(=O)(c1ccc(Br)cc1)c1nc(-c2ccco2)oc1SCc1ccccc1F | active: 44%
CC(=O)c1cc(-c2ccc(F)cc2)n(CC(=O)NC2CCCCCC2)c1C | inactive: 74%
COc1cccc(CNS(=O)(=O)c2c(C)nc3scc(C)n3c2=O)c1 | inactive: 141%
CCOc1ccc(CCNC(=O)CN2C(=O)c3cccnc3Oc3ccc(C)cc32)cc1OCC | inactive: 67%
COc1ccc(NC(=O)c2ccco2)cc1NC(=O)C(C)Oc1ccc(Cl)cc1Cl (stereo not drawn) | active: 28%
O=C(Nc1ccc(NC(=O)c2cccs2)cc1)c1cccs1 | inactive: 99%
CCCOc1ccc(-c2cccc(NS(=O)(=O)c3cccs3)c2)nn1 | inactive: 80%
O=C(Nc1cccc(C(F)(F)F)c1)c1cc2nc(-c3ccccc3)cc(C(F)(F)F)n2n1 | inactive: 60%
COc1ccc(-c2onc(C)c2C)cc1S(=O)(=O)Nc1ccc(OC(F)(F)F)cc1 | inactive: 88%
CCOC(=O)c1cccc(NC(=O)c2cc(S(=O)(=O)N3CCCC3)cn2C)c1 | inactive: 71%
Cc1ccc(CSc2oc(-c3ccco3)nc2S(=O)(=O)c2ccc(Cl)cc2)cc1 | inactive: 63%
CCOC(=O)CNC(=O)c1cc2c(=O)n(CC)c3ccccc3c2s1 | inactive: 94%
CCCOC(=O)c1ccc(NC(=O)Cn2nnc3sc4c(c3c2=O)CCC(C(C)(C)C)C4)cc1 (stereo not drawn) | inactive: 69%
Cc1ccc(CNC(=O)CSc2ccc(-c3sc(-c4ccccc4)nc3C)nn2)cc1 | inactive: 93%
CCCCN(CC)C(=O)c1c[nH]c2ccc(S(=O)(=O)Nc3cccc(OC)c3)cc2c1=O | inactive: 80%

SMILES | survival
COc1ccc(NC(=O)C2=C(C)Nc3c(C(=O)Nc4ccc(C)cc4)cnn3C2c2cccc(Cl)c2)cc1 (stereo not drawn) | inactive: 94%
COc1ccc(NC(=O)CC2Nc3cccc4cccc(c34)NC2=O)cc1 (stereo not drawn) | active: 41%
Cc1ccc2oc(-c3cccc(NC(=O)c4cccc5c(Br)cccc45)c3)nc2c1 | inactive: 153%
O=C(CCCn1c(=O)c2cccn2c2ccccc21)Nc1cccc(Cl)c1 | active: 41%
Clc1ccccc1CSc1nncn2c1cc1occc12 | inactive: 62%
CC(=O)N1c2ccccc2CC1C(=O)N1CCN(c2cccc(C)c2C)CC1 (stereo not drawn) | inactive: 99%
Cc1oc2ccc(O)c(CN3CCOCC3)c2c1C(=O)Nc1ccc(C(C)C)cc1 | inactive: 91%
CCOc1ccccc1CNC(=O)CCCn1c(=O)c2cccn2c2cccnc21 | inactive: 102%
Clc1ccc(N2CCN(Cc3nnc(-c4ccc5c(c4)OCO5)o3)CC2)cc1 | inactive: 91%
CCN1/C(=C(\C#N)c2nc(C#N)c(C#N)nc2N2CCOCC2)Nc2ccccc21 | inactive: 104%
COc1ccc(-c2cccc(NS(=O)(=O)c3cccs3)c2)nn1 | inactive: 73%
Cc1cccn2c(=O)cc(COc3cccc(NC(=O)COc4ccccc4)c3)nc12 | inactive: 73%
COc1cccc(-c2nc3c(c(SCC(=O)Nc4cc(C)ccc4C)n2)Cc2c(CO)cnc(C)c2O3)c1 | inactive: 77%
CC(=O)c1ccc(NC(=O)CCc2nc(-c3ccc(C)cc3)no2)cc1 | inactive: 67%
COc1ccc(Nc2cc(C(=O)NCCCN(C)Cc3ccccc3)c3ccccc3n2)cc1 | inactive: 109%
CCOC(=O)c1ccc(NC(=O)CC2C(=O)N(c3ccc(F)cc3)C(=O)N2Cc2ccc(C)cc2)cc1 (stereo not drawn) | inactive: 54%
COc1ccc(C(=O)Nc2ccccc2-c2nc3ccccc3s2)c(OC)c1 | inactive: 102%
O=C(CSC1CC(=O)N(c2ccccc2)C1=O)Nc1ccc(F)cc1 (stereo not drawn) | inactive: 90%
CCOc1cc(C2Sc3ccccc3NC3=C2C(=O)c2ccccc23)ccc1O (stereo not drawn) | inactive: 48%
CCOC(=O)c1cnc2ccc(Cl)cc2c1Nc1ccc(OCC)cc1 | active: -5%
CN1C(=O)CC(NCc2ccc(S(N)(=O)=O)cc2)C1=O (stereo not drawn) | inactive: 97%
Cc1ccc(-c2noc(C3CCN(C(=O)Nc4ccc(C#N)cc4)CC3)n2)o1 | inactive: 93%
